Experimental data taken from the supplement of paper PMC12217912.
The other results are listed elsewhere or left out. The full chains were built here from the parent and the listed change. Values near 0.05 are background.

B1: TEV protease; numbered along this chain (parent)
chain: MGESLFKGPRDYNPISSSICHLTNESDGHTTSLYGIGFGPFIITNKHLFRRNNGTLVVQSLHGVFKVKDTTTLQQHLVDGRDMIIIRMPKDFPPFPQKLKFREPQREERICLVTTNFQTKSMSSMVSDTSCTFPSGDGIFWKHWIQTKDGQCGSPLVSTRDGFIVGIHSASNFTNTNNYFTSVPKNFMELLTNQEAQQWVSGWRLNADSVLWGGHKVFMVKPEEPFQPVKEATQL

Variants of: B1
Assay: raw area under fraction-flipped curve 0-4 h after induction (AUC4h, not background-subtracted), DNA-recorder readout of cleavage of the substrate (dimensionless); higher = more cleavage of the substrate by the protease variant
Details: temperature: 34 °C; time window: 0-4 h after rhamnose induction
Description: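 In vivo DNA recorder in E. coli TOP10(DE3) ΔrhaA at 34 °C. Each TEVp single-site mutant (parent TEVp 0) is paired with a single-site variant of the 7-mer TEVs (canonical ENLYFQ|S). The substrate sits between flexible linkers in a Bxb1-sfGFP-TEVs-SsrA fusion, so cleavage stabilises Bxb1 and speeds flipping of a recombination array, read by NGS. The value is the raw area under the fraction-flipped curve over 0-4 h after rhamnose induction (AUC4h), with ≥20 reads per time point. It is not background-subtracted; inactive controls average about 0.047.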
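Note: Bxb1 expression induced with 0.2% (w/v) L-rhamnose at OD600 near 0.5, cultures sampled hourly, flipped fraction per protease–substrate barcode pair counted by paired-end Illumina sequencing.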

| Variant | area with substrate ENLAFQS | area with substrate ENLCFQS | area with substrate ENLDFQS | area with substrate ENLEFQS | area with substrate ENLFFQS | area with substrate ENLGFQS | area with substrate ENLHFQS | area with substrate ENLKFQS | area with substrate ENLLFQS | area with substrate ENLMFQS | area with substrate ENLNFQS | area with substrate ENLPFQS | area with substrate ENLRFQS | area with substrate ENLSFQS | area with substrate ENLTFQS | area with substrate ENLIFQS | area with substrate ENLQFQS | area with substrate ENLVFQS | area with substrate ENLWFQS |
| --- | --- | --- | --- | --- | --- | --- | --- | --- | --- | --- | --- | --- | --- | --- | --- | --- | --- | --- | --- |
| Q151E | 0.0698 | 0.0742 | 0.0594 | 0.0672 | 0.075 | 0.0591 | 0.0696 | 0.074 | 0.0702 | 0.0589 | 0.0656 | 0.0628 | 0.0771 | 0.0565 | 0.0647 | – | – | – | – |
| K142L | 0.0774 | 0.0689 | 0.0588 | 0.0729 | 0.0991 | 0.0668 | 0.0761 | 0.0727 | 0.0776 | 0.0649 | 0.0809 | 0.0648 | 0.0755 | 0.0627 | – | 0.0726 | 0.0816 | 0.0667 | 0.0618 |
| W141I | 0.0482 | – | – | 0.0622 | 0.0572 | – | – | 0.0609 | 0.0512 | – | 0.0459 | – | – | 0.0385 | – | 0.0561 | 0.0667 | 0.0664 | – |
| P134D | 0.0633 | 0.0683 | 0.0649 | 0.0641 | 0.0545 | 0.0809 | 0.0654 | 0.07 | 0.0576 | – | 0.0607 | 0.0758 | 0.0687 | 0.0578 | – | 0.0682 | 0.0733 | 0.0643 | 0.0535 |
| F133K | 0.0714 | 0.0828 | 0.0585 | 0.0578 | 0.101 | – | 0.0669 | 0.0771 | 0.0649 | – | 0.0559 | 0.0518 | – | 0.0652 | 0.0679 | 0.089 | – | 0.0875 | – |
| F133W | 0.066 | 0.0726 | 0.0581 | – | 0.0811 | – | 0.0724 | 0.0783 | 0.122 | – | 0.0618 | 0.0605 | 0.0798 | 0.058 | – | 0.049 | 0.0571 | 0.086 | 0.078 |
| V157L | 0.0651 | 0.059 | 0.053 | – | 0.0799 | 0.0526 | 0.0658 | 0.0715 | 0.0661 | 0.0733 | 0.06 | – | 0.0686 | 0.0508 | – | 0.0736 | 0.0574 | 0.0752 | – |
| V157D | 0.0369 | 0.0477 | 0.0505 | – | 0.0635 | 0.053 | 0.0445 | 0.0478 | 0.0606 | – | 0.0371 | – | 0.0428 | 0.0428 | 0.0616 | – | 0.0513 | 0.0461 | 0.0463 |
| Q146C | 0.0593 | – | 0.0578 | – | 0.105 | 0.0346 | 0.0588 | 0.0849 | 0.0922 | – | 0.0554 | 0.0533 | – | 0.0825 | 0.0702 | 0.08 | 0.0669 | – | 0.0796 |
| Q146M | 0.0332 | – | – | 0.0698 | 0.109 | – | – | 0.0954 | 0.0916 | 0.0808 | 0.0417 | 0.0574 | 0.0555 | – | – | – | 0.0661 | – | 0.0764 |
| Q146T | 0.0664 | – | 0.0553 | 0.0613 | 0.0757 | 0.0707 | 0.102 | 0.0742 | – | – | 0.0719 | 0.0752 | 0.0926 | 0.0615 | – | – | 0.0534 | – | 0.0684 |
| L156E | 0.0306 | 0.0488 | 0.0534 | 0.055 | 0.0493 | – | 0.0224 | 0.0581 | 0.0455 | – | 0.0508 | 0.0579 | – | 0.065 | – | 0.0375 | 0.0729 | 0.0585 | 0.0532 |
| L156H | 0.0517 | 0.0634 | 0.0561 | 0.0608 | 0.0879 | – | 0.0555 | 0.0607 | 0.0477 | 0.0613 | 0.058 | 0.0564 | 0.0502 | 0.0534 | 0.0773 | 0.0632 | 0.0344 | 0.0572 | – |
| R109G | 0.0673 | 0.0663 | 0.0343 | 0.0599 | 0.0795 | – | 0.0648 | 0.0936 | 0.0529 | 0.035 | 0.0789 | 0.0497 | 0.0837 | 0.0668 | – | 0.0891 | 0.0666 | 0.082 | 0.0639 |
| R109I | 0.0733 | 0.0593 | 0.0599 | – | 0.0823 | 0.0782 | 0.0765 | 0.0996 | 0.0637 | – | 0.0679 | 0.0677 | 0.0583 | – | – | – | – | 0.0747 | 0.0514 |
| R109W | 0.0717 | 0.0487 | 0.0614 | 0.0684 | 0.0958 | – | 0.0658 | 0.0743 | 0.0684 | 0.0722 | 0.0613 | 0.0519 | – | – | 0.0539 | 0.078 | 0.0715 | 0.081 | 0.0754 |
| V126A | 0.0528 | 0.0757 | 0.0617 | 0.0663 | 0.0986 | 0.0642 | 0.0577 | 0.0601 | – | 0.0723 | 0.0654 | 0.0653 | – | 0.0611 | – | 0.0852 | 0.0919 | 0.098 | 0.0673 |
| C111S | 0.0676 | 0.0643 | 0.0717 | 0.0555 | 0.0901 | 0.0626 | – | 0.094 | 0.0616 | 0.0724 | 0.0694 | 0.0713 | 0.0772 | 0.0668 | – | 0.0828 | – | 0.0967 | – |
| S154H | 0.0609 | – | 0.0572 | 0.0696 | 0.0641 | – | 0.0624 | 0.0648 | 0.0633 | 0.0806 | 0.0705 | 0.0597 | 0.0604 | 0.0735 | – | 0.0655 | 0.068 | 0.0899 | 0.0632 |
| S127G | 0.0424 | 0.0597 | 0.0602 | 0.0479 | 0.09 | – | 0.106 | 0.0766 | – | 0.0827 | 0.0747 | – | 0.0797 | 0.0717 | – | 0.0838 | 0.0726 | 0.0888 | – |
| G166D | 0.0523 | 0.0638 | 0.052 | 0.0703 | 0.0458 | – | 0.0429 | 0.0542 | – | 0.0811 | 0.0512 | 0.0501 | 0.0544 | 0.0273 | – | – | 0.0404 | 0.0513 | 0.0411 |
| S124V | 0.0625 | – | 0.0666 | – | 0.0818 | – | 0.0666 | 0.0801 | 0.073 | 0.0778 | 0.0587 | 0.0572 | – | 0.0604 | 0.06 | 0.0959 | 0.0704 | 0.0835 | 0.0725 |
| S130Y | 0.0668 | 0.065 | 0.0546 | 0.0559 | 0.0678 | 0.0607 | 0.0558 | 0.0679 | – | 0.0686 | 0.0724 | 0.0411 | 0.0669 | 0.0553 | – | – | 0.0808 | – | 0.0741 |
| S121W | 0.0664 | 0.0811 | 0.069 | – | 0.0845 | – | 0.0611 | 0.0792 | 0.086 | – | 0.0544 | 0.0611 | 0.0777 | 0.0638 | – | 0.072 | – | – | – |
